Read counts are not given, so values of variants with three or more changes are uncertain.
B1: CPEB3 Ribozyme (parent)
chain: UAACAGGGGGCCACAGCAGAAGCGUUCACGUCGCAGCCCCUGUCAGAUUCUGGUGAAUCUGCGAAUUCUGCUGUAUAUCUC

Variants of: B1
Assay: self-cleavage, relative activity (ratio to wild type); higher = more cleavage; in vitro, sequencing
Outline: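 CPEB3 self-cleaving ribozyme mutant libraries were made by rounds of error-prone PCR, barcoded, and transcribed in vitro with T7 RNA polymerase for 5 hours at 37°C. Cleavage occurred during transcription and a 15 min DNase I step before EDTA stop. RNAs were reverse transcribed with template switching and Illumina-sequenced, with DNA sequencing mapping barcodes to variants. Relative activity is the variant's cleaved/total read fraction divided by wild type's (minimum 5 reads), averaged across three batches.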

| Variant | self-cleavage |
| --- | --- |
| A20G A28C U49G U76A | 0.3 |
| G19A G24A U41C U72A | 0.12 |
| A18U U26C U41C U60C U69A U80A | 0.24 |
| A18U U43A U48C U76C A77G | 0.16 |
| G19U U26C C37A U54A U69A | 0.08 |
| A20C A57G U76C | 0.15 |
| G19U U26C U66C U67A | 0.12 |
| A18U A45U U49C A56G | 0.16 |
| A20G A45G A64U A75U | 0.15 |
| A18U C32U U43G | 0.2 |
| G19U C29U G63U A64G U72A | 0.09 |
| A18U C27G A45G U51A U72C U78C C79U | 0.15 |
| A18U A35G C39G U72C U80A | 0.34 |
| G19C A28C C39A A57G A64G | 0.14 |
| A20G A35U G36A U48C | 0.05 |
| A20C U43C U74C | 0.07 |
| A18U C62G U69G | 0.19 |
| G19A A21G U60A A65G | 0.11 |
| A20G A21U U54A U60C A65G A77U | 0.05 |
| A20G C29A A45G G55U | 0.14 |
| A18U A21G G22U G33C A35G G55U A57G | 0.15 |
| A18U U58A A64G U72A | 0.12 |
| G19A A35G U41C | 0.16 |
| G19U U41A U49C U72C | 0.1 |

| Variant | self-cleavage |
| --- | --- |
| A18U U31C U51C C62U | 0.14 |
| A18U U43G U51A U54C U60C A64G | 0.08 |
| A20G C23A G70C U80A | 0.07 |
| A20G A21G C39U G42A U43C U69C | 0.07 |
| G19C A20G C29U | 0.34 |
| A18U U25A A45U U54C | 0.05 |
| A20G A28G C34U U41C A64G C68G U74A | 0.06 |
| A20G A45G A64G U74A | 0.51 |
| A20G A45G A56G C81U | 0.2 |
| G19C G30U U51A A64G U80C | 0.05 |
| A18U U51C U72C U80G | 0.17 |
| A18U G24A U48C G63U A64G | 0.15 |
| A20G A35G A45U C50U U58G U60G | 0.1 |
| A18U A35G C40U U41G A56U U66A U78C | 0.05 |
| A20G C23A U31C A45G G73U U80C | 0.04 |
| A20G A64U U78C | 0.14 |
| A18U U25C U49C U69A | 0.14 |
| G19A U25G U43C U78C | 0.04 |
| A20G A21G U31C U41C U67A U69A U78C | 0.36 |
| A18U U25C C68G U80C | 0.11 |
| A20C A21G A47G | 0.08 |
| G19U A21G A45C A56G | 0.18 |
| A18U A28G G30A G46U U66C U78G | 0.05 |
| A20G A35G G55C U72C A77G | 1.15 |

| Variant | self-cleavage |
| --- | --- |
| A18U U25C G46A | 0.22 |
| A18U A35G C37A G61A | 0.24 |
| A20G A35G U41C U49C | 0.21 |
| G19C A35G A77G | 0.29 |
| A20C U26C C44U | 0.18 |
| A20G A45U U69C | 0.15 |
| A18U G70C U80G | 0.14 |
| A18U A28G C44U | 0.21 |
| A20G A65G U69C U72C | 0.51 |
| A20C U26C A45U A56G U60C A64G | 0.07 |
| A20G A45G U51C U80C | 0.41 |
| A20C A47G A57G U80C | 0.06 |
| A18U U51A U54C | 0.53 |
| G19A G42U U51A U54C U60A U72C | 0.06 |
| A18U C37U U58C U69C | 0.06 |
| G19A U31G U49A U51A U67C | 0.06 |
| A20G A45C G52U | 0.27 |
| A20G A35G A57G U78C | 1.48 |
| G19C U51C A77G C79U | 0.33 |
| A18U A21G G33A A47C U80C | 0.04 |
| A20G A56G U72C U78C | 0.47 |
| A18U U31C A45G U54C | 0.13 |
| A18U U72A U74A | 0.13 |
| A18U U58C U69C U76C | 0.2 |

| Variant | self-cleavage |
| --- | --- |
| A18U U51C A75U U78C | 0.41 |
| A18U A21G G24A U74A | 0.25 |
| A18U U25C A45G A56G | 0.06 |
| A20G A56G U72C | 0.73 |
| G19A U41C U49A | 0.08 |
| A20G A47U A75G U78C | 0.05 |
| A18U U31C C32A | 0.19 |
| G19A U31A A56U U58C | 0.09 |
| A20G A21U U72C U78C | 0.3 |
| A18U A20U G30U G42A | 0.13 |
| A20G A28G U31A | 0.19 |
| A20G A21G A35G A64G | 0.52 |
| A20G A47G U48A A64G U76G A77G | 0.04 |
| A18U G33A U41A U54C | 0.12 |
| A18U A21G U26C U74C | 0.31 |
| A20G A35G C38A A45G U67C U69C | 0.06 |
| A18U A35G G46U U60C A65G U69G | 0.1 |
| G19U G42C U48C U76A | 0.15 |
| G19U U49C A64G U78C | 0.14 |
| A18U A21U U26C U31C U51C U72C U74A | 0.17 |
| A18U A21G C38G U69C C81U | 0.04 |
| A18U U43A G52A C71U | 0.21 |
| G19U C37U U60C A65G U67C | 0.08 |
| A20G A28U C37U | 0.34 |

| Variant | self-cleavage |
| --- | --- |
| G19U U31A A35G A77U | 0.24 |
| A20G A47G A65G | 0.42 |
| A20C A21C U31C U41A A47G C59A A75G | 0.04 |
| A18U U26C U41C U69G | 0.31 |
| A20G A45U U58C A65G U69A | 0.21 |
| G19A A21G U49C U69C | 0.06 |
| A18U A28G A65G U69G U76C | 0.1 |
| A18U C23U A45G C62A U74C | 0.14 |
| A18U A35G A65G | 0.42 |
| A18U U25C U26A C37A U76A U80C | 0.24 |
| A18U A20G U41C | 0.15 |
| A20C U26A U41C U60A U67C | 0.07 |
| G19C U31C C40A G73A | 0.11 |
| A18U C38G U80C | 0.2 |
| A20G C23U U25A U26C U67C | 0.1 |
| A18U A35G U43C U54C | 0.39 |
| A20C G22A C27A U80A | 0.15 |
| A18U U49A A56G C62U A75G | 0.11 |
| G19U U26C U67C | 0.15 |
| A20G A64G C81A | 0.95 |
| A18U A35U A57G C59A | 0.11 |
| A18U A56G U67G | 0.21 |
| A18U U48C G63U U66C C68A U72C | 0.15 |
| G19C A28G U43A A57G | 0.23 |

| Variant | self-cleavage |
| --- | --- |
| A18U C23U U49C | 0.2 |
| G19A U26C C27G U48C | 0.2 |
| A18U C23U C29A A35G A75G | 0.17 |
| G19A U49C U54C | 0.16 |
| G19C A21U U25C A35G A56G A57G | 0.03 |
| A18U C27A C34G C40U U51A U74C | 0.14 |
| A18U G36U U49A A56U U80C | 0.45 |
| A18U U54A A57C | 0.21 |
| A18U A21G U43C U48C | 0.06 |
| A18U U48C U49C U72A | 0.07 |
| A18U A35G U41C U54A U67A | 0.41 |
| A20G A28G C50U U60C | 0.19 |
| A20G A21G U43A C44U A57G | 0.25 |
| A18U U25C U26G | 0.33 |
| A20G A28U C71U | 0.16 |
| A20G C29A U41C A45G U48G A65G U80A | 0.07 |
| A18U G30C U80G | 0.43 |
| A18U U25C A35G U41C U76C A77G | 0.05 |
| A20C U48C U54C | 0.15 |
| A18U U25C A45U A47U U49C U54C A64G | 0.19 |
| A18U A45G U48C U60C U72A | 0.07 |
| A20G A45G A75G | 0.66 |
| A18U A65G U67A | 0.24 |
| A20G A35G U66C U72C U80A | 1.07 |

| Variant | self-cleavage |
| --- | --- |
| A18U U67C A77U | 0.13 |
| A18U U25C A35U U69C C71A | 0.09 |
| A18U A20U U25C U26C U41A | 0.05 |
| A18U U49A U72G | 0.21 |
| A18U G53A U58C U72A | 0.15 |
| A18U A20U U25A U51C | 0 |
| A20C G24C C32U | 0.15 |
| A18U U26C U41A U49A U72A | 0.28 |
| A20G A21G U31C G63A U80A | 0.03 |
| A20G A21G U25A | 0.08 |
| A20G A21G G22U U66C | 0.44 |
| A18U U43C U67A U72A | 0.12 |
| A18U U31C U72A | 0.17 |
| G19U A21U A28G U54A U67C U80C | 0.06 |
| A18U A28U A35G A56G U69C | 0.69 |
| A20C U49A U51A A65G U80A | 0.04 |
| A18U U43C G61U U67C U69A | 0.16 |
| A18U U41G U60C A75G | 0.06 |
| A18U G55A G63A A75G A77C | 0.17 |
| A20G C27A U41C U60C | 0.08 |
| G19U G22U U26A | 0.2 |
| A18U U41A A75U | 0.18 |
| A20G A35U U43A G52A | 0.69 |

Source: the RNAGym collection of RNA variant scans (doi:10.1093/nar/gkz1192)
